Experimental findings from paper PMC4336329 (PLoS ONE, 2015) are described below.

Each structure is given as a SMILES string. Screen size: about 310,000 compounds; about 14,000 (4.5%) showed an effect of 50% or more. Effects have a minus sign here. The list shows a part of the results.
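Also: peak tail current of the secondary pulse compared with the same well before compound.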

For the experiment, the target named is human ether-à-go-go-related gene (hERG) potassium channel (human, UniProt Q12809). The experiment can be described thus: primary screen, population patch clamp on CHO cells stably expressing hERG.
human ether-à-go-go-related gene (hERG) potassium channel, sequence (Q12809 whole entry, looked up): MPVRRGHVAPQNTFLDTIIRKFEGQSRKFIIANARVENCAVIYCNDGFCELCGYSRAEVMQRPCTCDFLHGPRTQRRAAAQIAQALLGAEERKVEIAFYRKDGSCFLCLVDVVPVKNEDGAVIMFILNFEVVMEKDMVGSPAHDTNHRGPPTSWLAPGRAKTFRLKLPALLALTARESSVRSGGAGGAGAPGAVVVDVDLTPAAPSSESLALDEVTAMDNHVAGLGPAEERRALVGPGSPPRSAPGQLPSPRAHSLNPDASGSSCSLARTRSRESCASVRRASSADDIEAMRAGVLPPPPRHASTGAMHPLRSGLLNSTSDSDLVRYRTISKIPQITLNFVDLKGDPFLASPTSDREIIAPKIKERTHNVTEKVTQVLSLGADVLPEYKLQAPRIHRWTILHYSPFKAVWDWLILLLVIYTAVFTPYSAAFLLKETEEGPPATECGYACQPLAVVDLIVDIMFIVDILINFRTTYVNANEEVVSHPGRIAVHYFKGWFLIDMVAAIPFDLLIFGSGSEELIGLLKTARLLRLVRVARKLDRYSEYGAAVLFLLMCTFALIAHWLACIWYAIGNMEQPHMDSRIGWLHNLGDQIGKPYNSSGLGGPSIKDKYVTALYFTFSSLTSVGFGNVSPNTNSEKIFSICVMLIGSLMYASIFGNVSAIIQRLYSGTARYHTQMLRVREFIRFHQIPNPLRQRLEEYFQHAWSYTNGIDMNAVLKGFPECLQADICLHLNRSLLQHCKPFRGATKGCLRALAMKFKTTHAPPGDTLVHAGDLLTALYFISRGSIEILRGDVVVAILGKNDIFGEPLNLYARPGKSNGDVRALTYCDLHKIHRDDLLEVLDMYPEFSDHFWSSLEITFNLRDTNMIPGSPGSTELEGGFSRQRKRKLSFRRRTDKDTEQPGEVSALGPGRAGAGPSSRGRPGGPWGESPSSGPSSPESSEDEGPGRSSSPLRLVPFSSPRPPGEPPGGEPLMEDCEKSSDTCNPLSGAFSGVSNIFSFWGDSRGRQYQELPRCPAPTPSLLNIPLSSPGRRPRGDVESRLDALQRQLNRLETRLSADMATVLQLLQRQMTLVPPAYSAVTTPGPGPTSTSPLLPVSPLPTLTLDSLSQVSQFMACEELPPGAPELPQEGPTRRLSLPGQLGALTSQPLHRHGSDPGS
As to `Cc1cccc(NC(=S)NCC23C=CC(O2)C2C(=O)N(c4ccc(Cl)cc4)C(=O)C23)c1` (centres unmarked), the “hERG current change (%, negative = inhibition) at 10uM” value is given as 4.35%.
Regarding `Cn1nc(C(=O)NCCc2ccc(S(N)(=O)=O)cc2)c2ccccc2c1=O`, the “hERG current change (%, negative = inhibition) at 10uM” value was 1.47%.
For `Cc1ccc(NC(=O)CSc2nnc(Cc3cccn3C)n2-c2ccc(F)cc2)cc1`, the “hERG current change (%, negative = inhibition) at 10uM” value is on record as -31.1%.
`Cc1nc(SCC(=O)NC2CCCC2)[nH]c(=O)c1Cc1ccccc1`: the “hERG current change (%, negative = inhibition) at 10uM” value was 7.93%.
For `COC(=O)c1ccccc1OC(=O)c1cc[n+]([O-])cc1` the value was 9.67%; for `Cc1ccccc1CN1CCN(Cc2ccc3cccc(F)c3n2)CC1CCO` (centres unmarked), -32.7%; for `CCN(CC)c1cccc(OC(=O)c2cccnc2Cl)c1`, -7.41%.
For the compound `O=C1NC2(CCCCC2)C(=O)N1CCS(=O)(=O)Oc1ccc(Br)cc1`, the “hERG current change (%, negative = inhibition) at 10uM” value is -2.58%.
For `CC(=O)N(Cc1ccccc1)c1ccccc1C(=O)O` the value was 13.1%; for `CCN(CC)C(=O)c1ccc(NC(=O)COc2ccc([N+](=O)[O-])cc2Cl)cc1`, -25.2%; for `COc1ccc(-c2csc(NC(=O)c3cc(C)on3)c2C#N)cc1OC`, 8.72%.
The result for `COc1ccccc1NC(=O)c1ccc(NC(=O)CSc2ncccn2)cc1` reads -10.6%; that for `O=C1CN(C(=O)CN2CCCC2)C(c2ccccc2)c2cc(Br)ccc2N1` (centres unmarked), -46.6%; that for `CC(=O)OCCNC(=O)Cn1cnc2c1c(=O)n(C)c(=O)n2C`, 4.82%.
For `O=C(CCCCCNC(=O)c1ccccc1)N/N=C/c1ccccc1`, the “hERG current change (%, negative = inhibition) at 10uM” value was -9.98%.
For `O=C(Nc1nnc(CCS(=O)(=O)c2ccc3ccccc3c2)s1)c1ccc([N+](=O)[O-])cc1` the value was 13.6%; for `CCn1c(C)cc(/C=C2/NC(=O)N(Cc3ccccc3F)C2=O)c1C`, 19.8%.
Consider `COc1ccc(CCNC(=O)C2CCN(S(=O)(=O)c3ccc(Cl)cc3)CC2)cc1OC`, for which the “hERG current change (%, negative = inhibition) at 10uM” value is recorded as -10.5%.
As for `CCCc1nnc(NC(=O)C2CCN(C(=O)c3ccco3)CC2)s1`, the “hERG current change (%, negative = inhibition) at 10uM” value came to 3.58%.
In the case of `O=C(NC1CC2CCCC(C1)N2S(=O)(=O)c1ccccc1)C1CCCCC1` (centres unmarked), the “hERG current change (%, negative = inhibition) at 10uM” value is reported as -2.61%.
As to `C=CCNC(=S)/N=c1/ccccn1Cc1ccccc1`, the “hERG current change (%, negative = inhibition) at 10uM” value is 13.1%.
Take `Cc1ccc2nc(-c3ccc(SCC(=O)N4CCc5ccccc54)nc3)[nH]c2c1`: the “hERG current change (%, negative = inhibition) at 10uM” value was determined as 0.771%.
Turning to `Cn1c(=O)cc(OCC(=O)N2CCN(c3cccc(C(F)(F)F)c3)CC2)c2ccccc21`, the “hERG current change (%, negative = inhibition) at 10uM” value was -4.91%.
As for `COc1ccc(CN(CC(=O)NCCc2ccccc2)C(=O)CCC(=O)Nc2cc(C)ccn2)cc1`, the “hERG current change (%, negative = inhibition) at 10uM” value is given as -24.6%.
On to `Cc1ccc(SCC(=O)n2nc(C)cc2C)cc1`, for which the “hERG current change (%, negative = inhibition) at 10uM” value amounted to 16%.
The result for `COc1cccc(CNS(=O)(=O)c2ccc(-n3cnnn3)c(C)c2)c1` reads -8.54%; that for `COCCN(C(=S)Nc1ccccc1C)C(C)c1cccs1` (centres unmarked), -3.22%.
Take `O=C(NNC(=O)C(O)c1ccccc1)NC1CCCCC1` (centres unmarked): the “hERG current change (%, negative = inhibition) at 10uM” value is given as 13.9%.
In the case of `Cc1ccsc1/C=N/Nc1nc(Cl)c(Cl)cc1Cl`, the “hERG current change (%, negative = inhibition) at 10uM” value is on record as 8.03%.
For `C[C@H]1CN(Cc2ccccc2)C(=O)[C@@H]1CC(=O)NCc1ccccc1` the value was 1.31%.
Regarding `COc1ccc(OC)c(NS(=O)(=O)c2ccc(Br)s2)c1`, the “hERG current change (%, negative = inhibition) at 10uM” value is -12.4%.
The result for `Cc1ccc(NC(=O)CN2CCC(C(N)=O)CC2)cc1[N+](=O)[O-]` reads -11.1%; that for `COc1ccc(CCc2cc(OC)cc(=O)o2)cc1`, -0.477%; that for `CCN(CC)c1ccc(NC(=O)CN2CCN(c3nc(C)cc(C)n3)CC2)cc1`, -21.7%.
In the case of `CCC(C)[C@H](N)c1nnc(SCC(=O)Nc2cccc(Cl)c2)o1.Cl` (some centres unmarked), the “hERG current change (%, negative = inhibition) at 10uM” value is -15.6%.
`Cc1ccsc1-c1nc(CN2CCN(C)C(=O)[C@@H]2C)c(C)o1`: the “hERG current change (%, negative = inhibition) at 10uM” value is -52.5%.
For `O=CNCC(=O)NC1CCCCCC1` the value was 20.5%.
As to `O=C(NCc1ccc(-c2csnn2)cc1)c1cc(Cl)cc(Cl)c1`, the “hERG current change (%, negative = inhibition) at 10uM” value stood at 0.59%.
Regarding `COc1ccc(S(=O)(=O)Nc2c(C(=O)O)[nH]c3ccc(OC)cc23)c(OC)c1`, the “hERG current change (%, negative = inhibition) at 10uM” value is 32.2%.
With `CCOc1ccc(S(=O)(=O)N(CC)CC(=O)NCc2cccnc2)cc1`, the “hERG current change (%, negative = inhibition) at 10uM” value is reported as -38%.
For the compound `O=C(c1ccc(Cl)c(Cl)c1)N1CCC(=O)N(C(COCc2ccccc2)Cc2ccccc2)CC1` (centres unmarked), the “hERG current change (%, negative = inhibition) at 10uM” value is -46%.
For `O=C(COc1ccc([N+](=O)[O-])cc1)NC(C(=O)O)C(O)c1cccc([N+](=O)[O-])c1` (centres unmarked), the “hERG current change (%, negative = inhibition) at 10uM” value was 13.2%.
Consider `O=C(Nc1ccc(-c2csc(Nc3cccc(C(F)(F)F)c3)n2)cc1)c1cccc(C(F)(F)F)c1`, for which the “hERG current change (%, negative = inhibition) at 10uM” value came to 9.98%.
Consider `COc1ccccc1CNC(=O)Cn1nc(C(F)(F)F)cc1C`, for which the “hERG current change (%, negative = inhibition) at 10uM” value is reported as -1.14%.
